# Measurements published in article PMC4336329 (PLoS ONE, 2015).
# Among all 310,000 compounds or so, about 14,000 (4.5%) showed an effect of 50% or more. The effect is printed as a negative number. Some of the results follow.
# Molecular target: human ether-à-go-go-related gene (hERG) potassium channel (human, UniProt Q12809)
# Assay: primary screen, population patch clamp on CHO cells stably expressing hERG
# 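Note: peak tail current of the secondary pulse compared with the same well before compound.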
# Sequence of human ether-à-go-go-related gene (hERG) potassium channel (Q12809 whole entry, looked up): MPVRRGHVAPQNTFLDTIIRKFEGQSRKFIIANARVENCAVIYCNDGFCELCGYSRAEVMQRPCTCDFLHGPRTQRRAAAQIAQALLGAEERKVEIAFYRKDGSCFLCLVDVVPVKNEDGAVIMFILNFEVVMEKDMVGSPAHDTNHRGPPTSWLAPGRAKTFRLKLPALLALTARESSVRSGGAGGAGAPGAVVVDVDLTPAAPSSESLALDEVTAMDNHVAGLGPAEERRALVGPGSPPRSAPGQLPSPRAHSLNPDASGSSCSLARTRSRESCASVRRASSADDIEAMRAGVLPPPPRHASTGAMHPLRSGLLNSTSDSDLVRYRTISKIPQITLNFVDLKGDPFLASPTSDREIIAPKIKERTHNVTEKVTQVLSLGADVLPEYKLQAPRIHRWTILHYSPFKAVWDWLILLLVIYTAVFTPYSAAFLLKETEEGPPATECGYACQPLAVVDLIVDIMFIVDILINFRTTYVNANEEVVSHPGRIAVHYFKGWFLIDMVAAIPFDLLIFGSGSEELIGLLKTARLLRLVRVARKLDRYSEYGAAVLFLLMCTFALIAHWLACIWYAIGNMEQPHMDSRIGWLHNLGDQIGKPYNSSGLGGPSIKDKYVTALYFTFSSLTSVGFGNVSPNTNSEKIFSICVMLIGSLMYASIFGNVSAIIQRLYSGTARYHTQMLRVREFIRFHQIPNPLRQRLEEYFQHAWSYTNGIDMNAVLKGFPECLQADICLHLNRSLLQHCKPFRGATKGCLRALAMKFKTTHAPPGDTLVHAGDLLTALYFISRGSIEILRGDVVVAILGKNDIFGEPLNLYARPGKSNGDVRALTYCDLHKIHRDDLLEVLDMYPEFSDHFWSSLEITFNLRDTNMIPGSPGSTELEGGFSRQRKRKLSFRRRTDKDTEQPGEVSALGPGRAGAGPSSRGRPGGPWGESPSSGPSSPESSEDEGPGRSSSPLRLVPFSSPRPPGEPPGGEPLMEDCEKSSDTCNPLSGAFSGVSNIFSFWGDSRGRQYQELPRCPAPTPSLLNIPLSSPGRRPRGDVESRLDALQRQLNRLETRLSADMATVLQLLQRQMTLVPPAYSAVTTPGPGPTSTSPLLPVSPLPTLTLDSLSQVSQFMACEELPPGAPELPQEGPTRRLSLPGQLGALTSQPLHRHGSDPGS
row,Compound,"hERG current change (%, negative = inhibition) at 10uM [%]"
1,O=C(O)c1cccc(S(=O)(=O)NCCc2ccccc2)c1,14.4
2,O=C(CNC(=S)N(CCCN1CCOCC1)Cc1cccs1)NCc1ccc(Cl)cc1,-67.7
3,COC(=O)c1cc(-c2c(-c3cc(OC)c(OC)c(OC)c3)noc2C)cc([N+](=O)[O-])c1,-67.8
4,COCc1cc(=O)n2[nH]c(-c3ccco3)cc2n1,12.4
5,Fc1ccc(-n2nnc(-c3ncc[nH]3)n2)cc1,3.42
6,COCc1nnc(NC(=O)CS(=O)(=O)c2ccc(C)cc2)s1,17.6
7,Cc1ccc2c(c1)C(C)(C)[C@]1(C)NC(=O)CCN21,-0.041
8,c1ccc(Nc2cccc(Nc3ccccc3)n2)cc1,-19.2
9,COc1ccc(-c2nn(CCC#N)cc2C(=O)Nc2ccccc2)cc1OC,-6.03
10,CCn1c(-c2ccsc2)nc2c1c(=O)[nH]c(=O)n2Cc1ccccc1,13.5
11,Cc1ccc(S(=O)(=O)/N=C(/Nc2cccc(O)c2)c2ccccc2)cc1,-2.51
12,Cc1cc(C(=O)C(C)Cl)c(C)n1Cc1ccco1 (stereo not shown),1.07
13,O=C1c2ccccc2C(=O)N1OS(=O)(=O)c1ccccc1,11
14,COc1ccc2oc(C(=O)Nc3nc4ccccc4[nH]3)c(C)c2c1,9.31
15,CCCCOc1ccc(C(=O)Oc2cc(C)[nH]c(=O)c2[N+](=O)[O-])cc1,18.6
16,CSCCC(=O)N1CCCC(N(C)CCc2ccccc2)C1 (stereo not shown),-56.8
17,NS(=O)(=O)c1ccc(NC(=O)COC(=O)c2ccc([N+](=O)[O-])s2)cc1,2.2
18,CCc1ccc(OC)c(S(=O)(=O)Nc2ccccc2C)c1,3.86
19,Cc1cccc(-n2c(C)cc(/C=N/NC(N)=S)c2C)c1,-11.8
20,Cc1ccc(S(=O)(=O)N2CCCC(c3nnc4n3-c3ccccc3SC4)C2)cc1 (stereo not shown),-92.8
21,CN(C)C(CNS(=O)(=O)c1ccc(Br)cc1)c1cccnc1 (stereo not shown),-11.3
22,Cc1cccc(C)c1NC(=O)CSc1nc(N2CCOCC2)nc(N2CCOCC2)n1,14.4

row,Compound,"hERG current change (%, negative = inhibition) at 10uM [%]"
1,CC(O)(CS(=O)(=O)Cc1ccccc1)c1ccccc1Cl (stereo not shown),11.2
2,O=C(NCC1CC1)[C@@H]1C[C@H]1[C@@H](NP(=O)(c1ccccc1)c1ccccc1)c1ccccc1,-13.9
3,c1ccc(SCCN2CCc3ccccc3C2)cc1,-19.3
4,Cc1ccc(NC(=O)c2ccc3c(c2)OCCO3)nc1,18
5,COC(=O)c1cc(NC(=S)N2CCN(c3ccccn3)CC2)cc(C(=O)OC)c1,-13.9
6,CCOC(=O)/C(C#N)=C1/SC(CC)C(=O)N1c1ccc(C)cc1 (stereo not shown),-14.8
7,COc1ccc(C)cc1Nc1n[n+](C)c(-c2c3ccccc3cc3ccccc23)s1.[Cl-],13.3
8,CCOc1cc(C(=O)Nc2cc3c(cc2N2CCOCC2)n(C)c(=O)n3C)cc(OCC)c1OCC,6.6
9,O=C(NCCCN1CCOCC1)C(=O)NCc1ccccc1,1.24
10,C/C(=N\Nc1ccc([N+](=O)[O-])cc1[N+](=O)[O-])c1ccc(-n2nncc2C(C)(C)C)cc1,0.659
11,Oc1ccccc1CN(Cc1ccco1)CC(O)COCc1ccc(Cl)cc1 (stereo not shown),-8.65
12,Cc1cccc(Nc2c([N+](=O)[O-])c(=O)oc3ccccc23)c1,-4.39
13,C(=C\c1ccccc1)/CSc1nnc(-c2cnccn2)n1Cc1ccco1,-73.4
14,CC(=O)NN1C(=O)c2ccccc2NC1c1ccc([N+](=O)[O-])o1 (stereo not shown),8.22
15,CCC(C)[C@H](NC(=O)N1CCCCC1)C(=O)OC (stereo partly shown),3.36
16,CNC(=O)c1cc(Nc2nnc(-c3ccc(C)c(S(N)(=O)=O)c3)c3ccccc23)ccc1OC,15.4
17,COc1cccc(OCc2ccc(Cl)cc2)c1C#N,19.6
18,O=C(CCc1nnc2ccc(NCc3ccccc3Cl)nn12)NC1CCCCC1,-7.98
19,COc1ccc(C(CNC(=O)c2ccco2)N2CCCCC2)cc1 (stereo not shown),-5.74
20,CCC(NC(=O)Nc1cc(OC)c(OC)c(OC)c1)(C(F)(F)F)C(F)(F)F,9.56
21,O=C1N=c2ccccc2=C1c1sc(=S)n(CC2CCCO2)c1O (stereo not shown),5.15
22,Cc1cccc(NC(=O)Cn2c(O)c(N=NC(=O)c3ccccc3O)c3ccccc32)c1,2.85

row,Compound,"hERG current change (%, negative = inhibition) at 10uM [%]"
1,CSc1nc(N2CCN(C)CC2)c2ccccc2n1,-49.1
2,O=C(Nc1ccccc1N1CCN(C(=O)c2ccc(Cl)cc2)CC1)c1cc2ccccc2o1,-2.33
3,Cc1cccc(NC(=O)c2ccc([N+](=O)[O-])o2)c1,-10.1
4,CC1CCN(C(=O)C(=O)c2cn(CC(=O)N3CCCCCC3)c3ccccc23)CC1,14
5,CCOc1ccc(CN(C(=O)/C=C/c2ccco2)C2CCS(=O)(=O)C2)cc1 (stereo not shown),-31.6
6,COc1cccc(NC(=O)C2c3cc(OC)c(OC)cc3C(=O)N(C)C2c2cccnc2)c1 (stereo not shown),-4.11
7,O=C(CN1CCN(S(=O)(=O)c2ccccc2)CC1)Nc1ccc2c(c1)CCC2,-32.3
8,Cc1cccc(C2c3[nH]c4ccccc4c3CCN2Cc2cccn2-c2ncccn2)c1 (stereo not shown),-77.8
9,CCCc1cc(=O)[nH]c(SCC(=O)c2ccc(S(=O)(=O)N3CCCC3)cc2)n1,-12.9
10,COc1cccc(NC(=O)CS(=O)(=O)c2cccc3nsnc23)c1,4.92
11,CCn1c(CNC(=O)C2CCCCC2)cc2cc(C)ccc21,28
12,O=CNc1ccc(OC(=O)c2cncc(Br)c2)cc1,26.8
13,COC(=O)c1ccc(Cn2cnc3cnccc32)cc1,8.83
14,O=C(NCC1CCCO1)c1cn(-c2ccccc2)nc1-c1ccc(F)cc1 (stereo not shown),-2.43
15,N#CCCN1CCN(S(=O)(=O)c2ccc(S(=O)(=O)N3CCCCCC3)cc2)CC1,6.1
16,COc1ccc(Cl)cc1C(=O)Nc1cccnc1Cl,2.08
17,O=C(C1CC(=O)N(c2ccccc2)C1)N1CCCCCC1 (stereo not shown),13
18,Cc1cc(C)c(NC(=O)CSc2nncn2-c2cccnc2)c(C)c1,6.81
19,NC(=[NH2+])SCc1[nH+]cccc1O.[Cl-],7.41
20,CCOc1cc(/C=C2/N=C(c3ccc4c(c3)OCO4)OC2=O)ccc1OC(C)=O,9.87
21,Cc1ccc(S(=O)(=O)N2CCCC2)cc1C(=O)N1CCC(C)CC1,3.3
22,COc1ccc(S(N)(=O)=O)cc1C(=O)NCC(C)(C)N1CCOCC1,8.36

row,Compound,"hERG current change (%, negative = inhibition) at 10uM [%]"
1,COc1ccc(C#Cc2c(-c3ccsc3)oc3ccc(-c4cc(OC)c(OC)c(OC)c4)cc23)cc1,-13.9
2,O=C(Nc1ccc(F)cc1)c1cc(S(=O)(=O)N2CCCCC2)cs1,-1.08
3,O=S(=O)(Nc1cccc(Oc2ccc(Cl)cc2)n1)c1ccc(F)cc1,-20.6
4,COc1ccc(C2=NOC(C(=O)NCc3ccco3)C2)cc1 (stereo not shown),-16.6
5,O=C(CC(c1ccco1)C1CCCCC1=O)c1ccco1 (stereo not shown),2.21
6,NS(=O)(=O)c1ccc(CCNC(=O)c2cnc(Cl)c(Cl)c2)cc1,-5.24
7,Cc1nnc(NC(=O)CC(NC(=O)C(F)(F)F)c2ccccc2)s1 (stereo not shown),11.5
8,CCOC(=O)N1CCC(NC(=O)CC(NS(=O)(=O)c2ccc(C)cc2)c2ccco2)CC1 (stereo not shown),-7.75
9,O=C(NCCSCc1ccco1)c1ccc(CN2CCOCC2)cc1,7.13
10,Cc1ccc(S(=O)(=O)N2[C@@H](c3ccc(Cl)cc3)C(C(=O)O)=CC[C@H]2c2ccc3c(c2)OCO3)cc1,0.175
11,CNC(=O)C1Cc2ccccc2CN1S(=O)(=O)c1cccs1 (stereo not shown),-3.89
12,O=C(O)C1CCCCC1C(=O)Nc1ccc2c(c1)OCO2 (stereo not shown),10.7
13,CC(C)OC(=O)c1cc2c(ccn2C)n1CC(=O)N(Cc1ccccc1)c1ccc(F)cc1,-5.17
14,CCSc1nc2ccccc2c(=O)n1C1CCOC(C)(C)C1 (stereo not shown),14.6
15,COc1ccc(CN2CCSCC2)cc1O,14.4
16,O=[N+]([O-])c1ccc(N2CCN(CCO)CC2)cc1Sc1nc2ccccc2[nH]1,-12.4
17,O=C1OCCC1Sc1nc2ccccc2s1 (stereo not shown),7.9
18,Cc1ccc(OCC(=O)Nc2ccc(S(=O)(=O)Nc3ccccn3)cc2)cc1,33.1
19,Cc1cccc(OCc2nc(-c3ccc(Br)o3)no2)c1,-4.11
20,Cc1cc(C(=O)NCc2nc(-c3ccccc3)no2)ccc1[N+](=O)[O-],-20.1
21,NC(=O)CN1CCN(S(=O)(=O)c2ccc(Br)cc2)CC1,22.4
22,COc1ccc(CN2CC(C(=O)NCc3ccccn3)CC2=O)cc1 (stereo not shown),-11.6
